# Results reported in the supplement of paper PMC9334596.
# Values joined by “and” are separate entries in the source; they are usually repeats but may differ in a detail not shown here. Equal entries are not always repeated. Over roughly 5,300 compounds, “PER2::LUC luminescence relative to vehicle control” has its median near 0.96; the highest 2% begin near 1.3. This is one part of the list.
# System: mPer2Luc MEF
# Test: PER2::LUC luminescence relative to vehicle control (fold of vehicle); higher = higher PER2::LUC reporter signal
# Conditions: 10 µM
# Method in brief: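 Each value gives PER2::LUC luminescence as fold of vehicle control, measured with the ONE-Glo luciferase assay system in mouse embryonic fibroblasts carrying the mPer2Luc reporter. Cells grown in DMEM with 10% FBS at 37 °C and 5% CO2 were seeded at ~3000 per well in 384-well plates. Library compounds were added at 10 μM 48 h later, and readings were taken 24 h and 30 h after treatment.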
Structure (SMILES),PER2::LUC luminescence (time after treatment 24 h),PER2::LUC luminescence (time after treatment 30 h)
CO/N=C(\C(=O)N[C@@H]1C(=O)N2C(C(=O)O)=C(C[N+]3(C)CCCC3)CS[C@H]12)c1csc(N)n1,0.978,0.948
CCOC(=O)[C@H](CCc1ccccc1)N[C@@H](C)C(=O)N1CCC[C@H]1C(=O)O,1.28 and 0.941,0.823 and 1.04
Cn1nnnc1SCC1=C(C(=O)O)N2C(=O)[C@@H](NC(=O)[C@H](OC=O)c3ccccc3)[C@H]2SC1,0.886,1.12
COc1ccc(C(=O)c2ccccc2C(=O)O)c(O)c1,1.19,0.841
Cc1nc(N)sc1-c1ccnc(Nc2ccc(N3CCOCC3)cc2)n1,0.517,0.765
CCOc1ccc(C(=O)c2ccc(O)c(O)c2O)cc1,0.963,1.08
C[C@]12CC[C@@H]3c4ccc(O)cc4CC[C@H]3[C@@H]1C[C@@H](O)[C@@H]2O,0.915,0.96
CN(C)CCCO[C@@H]1[C@H]2OC(C)(C)O[C@H]2O[C@@H]1[C@H](O)CO,1.16,1.11
Cc1cccc2c3c(ccc12)C1=C(C(=O)C3=O)[C@@H](C)CO1,0.814,0.857
C[C@@H]1CN(CC(=O)Nc2ccc3c(c2)Cc2cccc(-c4cc(=O)cc(N5CCOCC5)o4)c2S3)C[C@H](C)O1,0.479,0.487
CCC[C@H](NC(=O)[C@@H]1[C@H]2CCC[C@H]2CN1C(=O)[C@@H](NC(=O)[C@@H](NC(=O)c1cnccn1)C1CCCCC1)C(C)(C)C)C(=O)C(=O)NC1CC1,0.895,0.882
CCC(C(=S)O[C@]12CCC[C@H](CC1)N2C)c1ccccc1 (some centres not stated),0.715,0.77
Cc1noc(NS(=O)(=O)c2ccc(N)cc2)c1C,0.851,1.06
CCc1cccc2c3c([nH]c12)C(CC)(CC(=O)O)OCC3 (configuration not stated),1.02,1.11
CCCCC(=O)O[C@]1(C(=O)CO)CC[C@H]2[C@@H]3CCC4=CC(=O)CC[C@]4(C)[C@H]3[C@@H](O)C[C@@]21C,0.848,1.06
CC(=O)N1CCN(CCOc2ccc(C3CCN(C4=Nn5c(nnc5C(F)(F)F)CC4)CC3)cc2)CC1,0.415,0.434
O=C1N=C(N2CCOCC2)CN1c1ccc(Cl)cc1,1.13,1.15
C=CC(=O)N1CCC[C@@H](n2nc(-c3ccc(Oc4ccccc4)cc3)c3c(N)ncnc32)C1,0.757,0.558
O=C(O)c1ccccc1C(=O)Nc1ccc(-c2ccccc2)cc1,1.14,1.05
CC(Oc1c(Cl)cccc1Cl)C1=NCCN1 (configuration not stated),0.875,0.888
CC1=C(CC(=O)O)c2cc(F)ccc2/C1=C\c1ccc([S+](C)[O-])cc1 (configuration not stated),0.878,0.879

Structure (SMILES),PER2::LUC luminescence (time after treatment 24 h),PER2::LUC luminescence (time after treatment 30 h)
C=CC(=O)Nc1ccc2ncnc(Nc3ccc(OCc4cccc(F)c4)c(Cl)c3)c2c1,0.392,0.325
CO[C@H]1[C@H](O)[C@@H](O)[C@H](O)[C@H](O)[C@H]1O,1.11,1.03
CN(C)CCC(c1ccc(Br)cc1)c1ccccn1 (racemic),0.867,0.672
Cc1ccccc1N1C(=O)c2cc(S(N)(=O)=O)c(Cl)cc2NC1C (configuration not stated),0.886,0.885
CCCn1c(=O)c2[nH]c(-c3ccc(S(=O)(=O)O)cc3)nc2n(CCC)c1=O,1.06,0.998
Cc1cc(-n2c(=O)[nH]c(=O)n(C)c2=O)ccc1Oc1ccc(SC(F)(F)F)cc1,0.894,0.751
O=C1N(c2ccccc2)c2ccccc2C1(Cc1ccncc1)Cc1ccncc1,0.547 and 0.987,0.86 and 1.15
[I-].[K+],1.07,1.05
CC(C)COC(=O)c1ccc(N)cc1,1.34,1.43
COc1ccc(C(=O)c2ccc(O)cc2)c(O)c1O,1.01,0.975
COc1ccc(-c2coc3c(OC)c(OC)cc(O)c3c2=O)cc1,1.01,1.13
COc1c(OCCCN2CCOCC2)ccc2c1N=C(NC(=O)c1cnc(N)nc1)N1CCN=C21,0.663,0.509
CC(C)(Cc1nc(-c2ccc(O)cn2)no1)C(=O)NC1=C(C(=O)O)CCCC1,1.02,1.08
C/C(=N\NC(=O)c1cccc(S(=O)(=O)N2CCOCC2)c1)c1cc(Cl)ccc1O,0.477,0.389
COc1ccc2c(c1)OCC(Cc1ccc(OC)c(OC(C)=O)c1)C2=O (configuration not stated),0.664,0.695
CC(=O)O[C@H]1C[C@@H](OC(C)=O)C(C)(C)C2C[C@@H](O)[C@]3(C)C(CC[C@@]4(C)[C@H](c5ccoc5)OC(=O)[C@H]5O[C@]543)[C@]21C (some centres not stated),0.791,0.837
C=CC1=C(C(=O)O)N2C(=O)[C@@H](NC(=O)/C(=N\OCC(=O)O)c3csc(N)n3)[C@H]2SC1,0.929 and 0.486,1.07 and 0.797
COc1ccc(CNC(=O)Nc2ncc([N+](=O)[O-])s2)cc1,1.35,1.27
OCCOCCN1CCN(C(c2ccccc2)c2ccc(Cl)cc2)CC1 (configuration not stated),0.983 and 0.881,0.806 and 0.773
CC(=O)Oc1c(C)c(C)c2c(c1C)CCC(C)(CCCC(C)CCCC(C)CCCC(C)C)O2 (configuration not stated),1.02,1.06
CC(=O)Nc1ccc(O)cc1,0.846,0.81

Structure (SMILES),PER2::LUC luminescence (time after treatment 24 h),PER2::LUC luminescence (time after treatment 30 h)
CCOC(=O)C1=CCCC[C@H]1S(=O)(=O)Nc1ccc(F)cc1Cl,0.77,0.812
NC(=S)N/N=C/c1ncccc1N,0.249,0.278
Cc1cccc2c3c(ccc12)C1=C(C(=O)C3=O)C(C)CO1 (configuration not stated),1.08,1.05
O=S(=O)(O)CCCS(=O)(=O)O,1.04,0.953
C=CCSCC(N)C(=O)O (configuration not stated),1.12,0.997
Nc1nc(SCc2ccc([N+](=O)[O-])cc2)c2ncn([C@@H]3O[C@H](CO)[C@H](O)C3O)c2n1 (some centres not stated),1.03,0.922
COc1ccc2[nH]c([S+]([O-])Cc3ncc(C)c(OC)c3C)nc2c1 (configuration not stated),0.886,1.08
COc1nc(-c2ccc3c(c2)OCO3)n(-c2ccc(NC(=O)CSc3ccccc3)cc2)n1,1.11,1.11
O=C(Nc1ccc(-c2ccnc(Nc3ccc(N4CCOCC4)cc3)n2)cc1)C1CCCN1 (configuration not stated),0.956,1.03
CCCCC(CC)CN=C(N)N=C(N)NCCCCCCNC(N)=NC(N)=NCC(CC)CCCC (configuration not stated),0.48,0.483
CC1(C)CC(NC(=O)C(=O)Nc2ccc(Br)cc2)CC(C)(C)N1,0.875,0.928
COc1ccc(-c2ccccc2)cc1NS(=O)(=O)c1cc(Cl)cc(Cl)c1O,1.06,0.927
CCCc1nc(C(C)(C)O)c(C(=O)O)n1Cc1ccc(-c2ccccc2-c2nnn[nH]2)cc1,0.858,1.02
N#C/C(=C\c1ccc(O)c(O)c1)C(=O)NCCCNC(=O)/C(C#N)=C/c1ccc(O)c(O)c1,0.978,0.972
O=C(OCc1ccccc1)c1ccccc1,1.05,1.03
OC(CCN1CCCCC1)(c1ccccc1)C1CCCCC1 (configuration not stated),0.787,0.923
Cc1ccc2c(Cl)cc(Cl)c(O)c2n1,0.989 and 0.694,1.03 and 0.911
N=C(N)N/N=C/c1c(Cl)cccc1Cl,1.08,1
Cc1cc(O)c(C=O)c2c1C(=O)Oc1c(COC(=O)/C=C/C(=O)O)c(O)c(C(=O)O)c(C)c1O2,0.996,0.92
CCC(=O)c1cc(-c2ccc(Cl)cc2)n(-c2ccc(S(N)(=O)=O)cc2)c1C,0.728,0.797
CCCCCCCCCC(=O)N[C@H]1[C@H](Oc2c3cc4cc2Oc2ccc(cc2Cl)[C@@H](O[C@@H]2O[C@H](CO)[C@@H](O)[C@H](O)[C@H]2NC(C)=O)[C@@H]2NC(=O)[C@H](NC(=O)[C@@H]4NC(=O)[C@H]4NC(=O)[C@@H](Cc5ccc(c(Cl)c5)O3)NC(=O)[C@H](N)c3ccc(O)c(c3)Oc3cc(O)cc4c3)c3ccc(O)c(c3)-c3c(OC4O[C@H](CO)[C@@H](O)[C@H](O)[C@@H]4O)cc(O)cc3[C@@H](C(=O)O)NC2=O)O[C@H](CO)[C@@H](O)[C@@H]1O (some centres not stated),0.848,1.14

Structure (SMILES),PER2::LUC luminescence (time after treatment 24 h),PER2::LUC luminescence (time after treatment 30 h)
Brc1c(NC2=NCCN2)ccc2nccnc12,0.986,1.04
CN(C)CCOC(=O)COc1ccc(Cl)cc1,0.909 and 0.933,0.872 and 1.21
COc1ccc(C[C@@H]2c3cc(OC)c(OC)cc3CC[N@+]2(C)CCC(=O)OCCCCCOC(=O)CC[N@@+]2(C)CCc3cc(OC)c(OC)cc3[C@H]2Cc2ccc(OC)c(OC)c2)cc1OC,0.676,0.663
Nc1cc(-c2ccncc2)c[nH]c1=O,1.09 and 0.939,0.995 and 0.851
CCOC(=O)c1c(C)n(C)c2ccc(O)cc12,0.939,0.886
C[C@H]1C[C@@H]2[C@H]([C@@H](O)C[C@@]3(C)[C@H]2CC[C@]3(O)C(=O)COC(=O)CCC(=O)O)[C@@]2(C)C=CC(=O)C=C12,0.539,0.93
Fc1cc(-c2cccc3ncc(-c4cnn(C5CCNCC5)c4)nc23)cc(F)c1CN1CCOCC1,0.47,0.558
C=C[C@@H]1C[C@]1(NC(=O)[C@@H]1C[C@@H](Oc2ncc(OC)c3ccc(Cl)cc23)CN1C(=O)[C@@H](NC(=O)OC(C)(C)C)C(C)(C)C)C(=O)NS(=O)(=O)C1CC1,1.02,1.03
COC(=O)C(N)CS (configuration not stated),0.369,0.764
CC(N)C12CC3CC(CC(C3)C1)C2 (configuration not stated),0.89,0.93
O=C(CS(=O)(=O)Cc1ccccc1)N1CCOCC1,0.841,0.781
CN(C)CC[C@@H](c1ccc(Cl)cc1)c1ccccn1,0.885,0.755
COc1cc(OC)cc(C(=O)Nc2ccc(Cl)c(-c3nc4ccc(N(C)C)cc4[nH]3)c2)c1,0.977,1.35
CN(CCOc1ccc(CC2SC(=O)NC2=O)cc1)c1ccccn1 (configuration not stated),1.12 and 1.05 and 0.707,0.939 and 0.982 and 0.92
CCN(c1cc(-c2ccc(CN3CCOCC3)cc2)cc(C(=O)NCc2c(C)cc(C)[nH]c2=O)c1C)C1CCOCC1,1.03 and 0.988,1.05 and 0.97
NC(N)=O,1.04,0.97
COC(=O)[C@@H]1OC(=O)C2OC23[C@@]1(C)CCC1[C@@]2(C)CCC(=O)C(C)(C)C2C[C@@H](OC(C)=O)[C@]13C (some centres not stated),0.9,0.921
Cn1c([N+](=O)[O-])cnc1COC(N)=O,1.15,1.27
